± gives the standard deviation of the averaged measurements. The list shows a part of the results.
The sequences below were run on PfAP2-LT AP2 domain (GST-tagged) (assay: gcPBM binding intensity (ln(normalized median fluorescence intensity)); higher = stronger DNA binding).
How it was run: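 Using an Agilent 4 × 180k array, primer-extended double-stranded 36-bp intergenic genomic probes and negative controls were exposed for 1 h to GST-fused P. falciparum DNA-binding domains expressed in E. coli. Binding was carried out in 1× PBS with 1% milk, 0.2 mg/ml BSA, 0.5% salmon testes DNA and 0.03% Triton X-100, and protein was detected with Alexa488 anti-GST antibody and a 488 nm scan. Binding intensity is the highest Masliner-normalised natural-log median intensity across replicate spots of either probe orientation.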
With “TAACACTTATAAAAAAGTACTGATGAAATAATACTA [XGTACX_site7305]” the “gcPBM binding intensity (ln)” value was 8.54 ± 0.45.
“AAATATATATGAAGATGTACATATATATATGTAAAT [XGTACX_site4039]” was tested, and the “gcPBM binding intensity (ln)” value was 9.06 ± 0.38.
For “AAAAATTCCAGACACACACACACATATAAATAAATA [CACACA_site1232]”, the “gcPBM binding intensity (ln)” value was 9.96 ± 0.28.
For “AGAACCATATATAAATGTACATGTTAATATGAATAA [XGTACX_site130]”, the “gcPBM binding intensity (ln)” value was 8.93 ± 0.42.
In the case of “GGACAAAAAAAAAAAATAAAATAAAAATAAATAAAT [XGTACX_negctrl_site106]”, the “gcPBM binding intensity (ln)” value is reported as 8.69 ± 0.67.
For “ATAACAAAATAAAACACACACACAAATGTACATATA [CACACA_site2425]”, the “gcPBM binding intensity (ln)” value was 9.85 ± 0.28.
With “AAATAAATAATTTAATGTACATATATAATATATATA [XGTACX_site1831]” the “gcPBM binding intensity (ln)” value was 8.62 ± 0.47.
For “CATATACACCAACACACACACACACCCACAAAAAAA [CACACA_site496]”, the “gcPBM binding intensity (ln)” value was 10.1 ± 0.27.
“AATAAAAAAATAGAAACACACATTAAAAAAAATAAA [CACACA_site1333]” was tested, and the “gcPBM binding intensity (ln)” value was 8.94 ± 0.46.
“ATGATATATAGACACACACACATATTTATATACATT [CACACA_site6404]” was tested, and the “gcPBM binding intensity (ln)” value was 9.78 ± 0.37.
“CTTTTTAATAAATATACACACACAAAAAAAAAAAAA [CACACA_site9316]” was tested, and the “gcPBM binding intensity (ln)” value was 9.02 ± 0.4.
In the case of “TATTCAAAGAAAGACAGTACGTGTAGCAAACAACCT [XGTACX_site4218]”, the “gcPBM binding intensity (ln)” value is reported as 9.11 ± 0.33.
With “ACTTACTAATTAATGGGTACATACACACATATATAC [XGTACX_site1362]” the “gcPBM binding intensity (ln)” value was 9.28 ± 0.45.
With “CACTTTATACGTAATTGTACTTTTTCTTTTTTTTAT [XGTACX_site3175]” the “gcPBM binding intensity (ln)” value was 8.88 ± 0.44.
“TAAATAAAGTATAATGCATGCTATTATAATATTAAT [TGCATGCA_site825]” was tested, and the “gcPBM binding intensity (ln)” value was 8.84 ± 0.48.
“AAATAAAATAAAATAAAATAAAATTCTTTGATACCT [TGCATGCA_negctrl_site604]” was tested, and the “gcPBM binding intensity (ln)” value was 8.57 ± 0.42.
In the case of “ATTTTTTTTTTTTTTTTTTTTTTTTAGATTAAGAAA [CACACA_negctrl_site1272]”, the “gcPBM binding intensity (ln)” value is reported as 8.07 ± 0.47.
For “TATAATTATTTTTTTCTAAATATTATAAGGTATTCA [GTGCAC_negctrl_site205]”, the “gcPBM binding intensity (ln)” value was 8.19 ± 0.5.
With “TACATATAATATATTGCACACGTCAGAATAATATAG [CACACA_site1744]” the “gcPBM binding intensity (ln)” value was 9.03 ± 0.41.
“TTTCTTTCTTCACATATATATATATATATATTTATA [TGCATGCA_negctrl_site341]” was tested, and the “gcPBM binding intensity (ln)” value was 8.92 ± 0.41.
TAATAGAATATGATGGTGCAGCAGTCTTATTTTTCA was tested, and the “gcPBM binding intensity (ln)” value was 8.9 ± 0.42.
In the case of “TTTTATAATATTTAAAGTACATTCTAAAAATATAAT [XGTACX_site8033]”, the “gcPBM binding intensity (ln)” value is reported as 8.19 ± 0.36.
With “TTAGCCATTAATTCTCTACACACCTTTATGTTATTT [CACACA_site9212]” the “gcPBM binding intensity (ln)” value was 9.01 ± 0.45.
With “AAAAAGAATGTGAACACACACATTGAATCTAATTTA [CACACA_site6711]” the “gcPBM binding intensity (ln)” value was 9.13 ± 0.4.
In the case of “TATTAAACGAAACACACACACACACCCATATATAAA [CACACA_site759]”, the “gcPBM binding intensity (ln)” value is reported as 10.23 ± 0.099.
“GATAATTATGGACACACACACACACCCACAACTAAA [CACACA_site8824]” was tested, and the “gcPBM binding intensity (ln)” value was 10.2 ± 0.35.
With “AGATGATATATTATATATCCTTTTAATAAATGTAAT [CACACA_negctrl_site730]” the “gcPBM binding intensity (ln)” value was 8.39 ± 0.44.
For “TATATAAAAAATTCAATACACACCATATATAAATAT [CACACA_site3987]”, the “gcPBM binding intensity (ln)” value was 8.93 ± 0.38.
For “ACATATAATATATATATATATATATATATATATAAT [GTGCAC_negctrl_site648]”, the “gcPBM binding intensity (ln)” value was 9.28 ± 0.12.
For “TATTCTAATTTTTAAACACACAAATATAAATAAGTA [CACACA_site3149]”, the “gcPBM binding intensity (ln)” value was 8.48 ± 0.45.
TATTCATATTTAAAGGTGCAATATTTATTTTGTACA was tested, and the “gcPBM binding intensity (ln)” value was 8.49 ± 0.45.
For “CTATTTATTATATATACATGCATATATATATTAATA [TGCATGCA_site527]”, the “gcPBM binding intensity (ln)” value was 8.59 ± 0.4.
In the case of “TAAAAATGTGTATGTACACACTTTATTTTTAATACA [CACACA_site7235]”, the “gcPBM binding intensity (ln)” value is reported as 9.09 ± 0.3.
“TGTACAAATATGTTGAAAATAAAATTTCAATATATT [XGTACX_negctrl_site13]” was tested, and the “gcPBM binding intensity (ln)” value was 8.53 ± 0.53.
In the case of “ATACGAATAAATTTCGCATGCAGCATATATATCAAT [TGCATGCA_site612]”, the “gcPBM binding intensity (ln)” value is reported as 8.9 ± 0.23.
For “AACGAAAATAAGAAAAGTACAAAAAATACCAAATAA [XGTACX_site6171]”, the “gcPBM binding intensity (ln)” value was 9.02 ± 0.52.
In the case of “TTAATACATACATTCACACACACTAATTGTATATTT [CACACA_site9362]”, the “gcPBM binding intensity (ln)” value is reported as 9.38 ± 0.42.
In the case of “ATATATATATATAATACACACTTATGAAATGTCTAA [CACACA_site5077]”, the “gcPBM binding intensity (ln)” value is reported as 8.91 ± 0.39.
With “TTCTTTTTTCGACACACACACACAAGAAGATATATA [CACACA_site7456]” the “gcPBM binding intensity (ln)” value was 9.51 ± 0.3.
For “ATATTTTTAGATTCAGAAAAAAGATTCAACTTACTC [CACACA_negctrl_site1357]”, the “gcPBM binding intensity (ln)” value was 8.29 ± 0.42.
With “TAAATTATAAATTGCACACATATTTTTATATTTATA [CACACA_site2976]” the “gcPBM binding intensity (ln)” value was 8.8 ± 0.42.
With “TATTTCATATGAAGAAGTACTATTAATAATTTCCTT [XGTACX_site6587]” the “gcPBM binding intensity (ln)” value was 8.44 ± 0.37.
“ATATATGCATATATATGTACATATATATATATATAT [XGTACX_site7403]” was tested, and the “gcPBM binding intensity (ln)” value was 9.59 ± 0.099.
“AATAAATAAAAAATTACACACATATATATAAATATA [CACACA_site3434]” was tested, and the “gcPBM binding intensity (ln)” value was 8.9 ± 0.47.

— the supplement of paper PMC11417369
